Measured values taken from PubChem BioAssay (NCATS).
The inconclusive results got no clear call from the source; some entries with a clear call stand among them for comparison. Potencies of inconclusive entries are left out as doubtful fits. The source made the active and inactive calls. Calls come from the whole dose curve; as a rule, active = well fitted curve in the direction sought with a large enough effect; inconclusive = small, poorly fitted or top-dose-only effect, or another doubt; inactive = no such curve, though single readings can be large; an effect the other way counts as inactive or inconclusive.

Columns and labels:
[1] = BET inhibitor-based combinations targeting novel dependencies in MECOM-rearranged (r) AML: OCI-AML3 cell line (AID 2202232); conditions: CellTiter-Glo luminescence, 48 h; Potency: OCI-AML3 viability; viability (% of control): at 46 µM (top of the series); note: nearly all actives have a fitted effect of over 35% in size
Outline: (§1)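 Cells were plated at 500 per well and exposed to an 11-point dose series of each drug for 48 hr. Viability was measured by CellTiter-Glo luminescence, normalized to DMSO and empty-well controls, and summarized as AUC and per-cell-line Z-AUC.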

[2] = BET inhibitor-based combinations targeting novel dependencies in MECOM-rearranged (r) AML: HNT-34 cell line (AID 2202234); note: nearly all actives have a fitted effect of over 35% in size
Outline: (§2)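 Activity is given as area under the curve and as Z-AUC, mean-centred within each cell line. It comes from 11-point dose curves normalized to DMSO and empty wells. CellTiter-Glo luminescence was read after 48 hr drug exposure of 500 cells/well.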

[3] = BET inhibitor-based combinations targeting novel dependencies in MECOM-rearranged (r) AML: UCSD-AML1 cell line (AID 2202235); conditions: UCSD-AML1 AML cells viability, CellTiter-Glo, 48 h; viability (% of control): at 46 µM (top of the series); note: nearly all actives have a fitted effect of over 40% in size
Outline: as §2

[4] = BET inhibitor-based combinations targeting novel dependencies in MECOM-rearranged (r) AML: AML-194 cell line (AID 2202237; note: nearly all actives have a fitted effect of over 40% in size)
Outline: as §1

[5] = BET inhibitor-based combinations targeting novel dependencies in MECOM-rearranged (r) AML: AML-191 cell line (AID 2202236; note: nearly all actives have a fitted effect of over 35% in size)
Outline: as §1
Potency is the fitted concentration of half-maximal effect; tags give direction and shape of the fitted curve.

## N#C/C(=C\c1ccc(O)c(O)c1)C(=O)NCc1ccccc1
[1]
  Potency: active: 5.9 µM
[2]
  Potency: inconclusive [inhibitor, partial curve]
[3]
  Potency: inconclusive [inhibitor, partial curve]
[4]
  Potency: inconclusive [inhibitor, partial curve]

## C=CC(=O)N[C@H]1CCOC[C@H]1Nc1ncc2cc(-c3c(Cl)c(OC)cc(OC)c3Cl)ccc2n1
[1]
  Potency: inconclusive [inhibitor, partial curve, poor fit]
[2]
  Potency: inconclusive [inhibitor, partial curve]
[5]
  Potency: inactive

## NC(=O)c1cccc2cn(-c3ccc([C@@H]4CCCNC4)cc3)nc12
[1]
  Potency: inconclusive [inhibitor, full curve]
[2]
  Potency: inconclusive [inhibitor, full curve]
[3]
  Potency: inconclusive [inhibitor, full curve]
[5]
  Potency: inconclusive [inhibitor, full curve]
[4]
  Potency: inconclusive [inhibitor, full curve]

## COc1cc(S(C)(=O)=O)ccc1Nc1nc2ccc(-c3ccc(NC(=O)[C@H](C)c4ccc(F)cc4)cc3)cn2n1
[1]
  Potency: active: 0.934 µM
[2]
  Potency: inconclusive [inhibitor, full curve]
[3]
  Potency: active: 1.32 µM
[4]
  Potency: active: 1.32 µM

## O=C(CN1C(=O)C2(CCCC2)NC[C@H]1c1cc(F)cc(F)c1)Nc1ccc2c(c1)C[C@@]1(C2)C(=O)Nc2ncccc21
[1]
  Potency: inactive
[2]
  Potency: inactive
[5]
  Potency: inactive
